# Data reported in ChEMBL document CHEMBL4888484, “Replenishing the malaria drug discovery pipeline: Screening and hit evaluation of the MMV Hit Generation Library 1 (HGL1) against asexual blood stage Plasmodium falciparum ,using a nano luciferase reporter read-out” (2022).
# Among all 150,000 compounds or so, about 540 (0.36%) showed an effect of 50% or more. Some of the results follow.
# System: Plasmodium falciparum
# Assay: Primary screen in NF54 nanoGlo assay, in single point, at 2uM, 72h; a lower Z score goes with more inhibition
# Format: functional, Erythrocyte
# Settings: timepoint 72 hour
SMILES,% Inhibition [%],Z score
CC1CCC(NC(=O)CN(CC(=O)NC2CCC(C)CC2)S(C)(=O)=O)CC1 (stereo unspecified),6,-1.15
O=C1N[C@H](Cc2c[nH]c3ccccc23)C(=O)N1c1cncc(Br)c1,-8,1.44
C=CCN(CC#Cc1ccccc1)C[C@H](O)CO,-15,1.32
CCc1noc(C)c1CNC(=O)c1ccc(C2CC2)nc1O,-8,0.96
Cc1cccc(NS(=O)(=O)c2ccc3c(c2)-c2oncc2CO3)c1,-10,0.98
Cc1ccc(C)c(NS(=O)(=O)c2ccc(-c3cc(C(F)(F)F)on3)o2)c1,-13,2.22
COC[C@H]1CCCCN1C(=O)c1ccnc(C2CCCC2)n1,7,-1.03
Cc1cccc(Cn2c(=O)c(C(=O)NCCN3CCOCC3)nn(-c3ccc(C(C)C)cc3)c2=O)c1,-8,1.12
COCc1ncc(C)n1CCNC(=O)CC1CCCC1,0,0
CC(C)[C@@H](C)NC(=O)c1cc(N(C)C2CCCCC2)nc2ccccc12,7,-1.14
CCc1ccc(-c2c(-c3ccccc3)ncn2CCN2CCCC2=O)o1,-7,1.09
CN(Cc1cccnc1)c1nc(N)nc2ccc(C(=O)O)cc12,-8,1.24
CCN1CCCN(C(=O)c2ccc(-c3cc(C(C)=O)ccc3F)cc2)CC1,-9,1.75
c1cncc(CN2CC[C@H](c3nnc(-c4cccnc4)o3)C2)c1,-9,1.57
Cc1ccc(Br)cc1-c1noc([C@@H]2CN(C)CCO2)n1,-12,2.26
Cc1cc(C(=O)Nc2ccc(C)c(O[C@H]3CCOC3)c2)no1,-3,0.27
Cc1noc(C)c1S(=O)(=O)NCc1cccnc1-n1cccn1,-6,0.76
CN(C)c1ccc([C@@H](CNC(=O)C2CCC2)c2c[nH]c3ccccc23)cc1,-5,0.69
O=C(c1ccccn1)N1CCN(Cc2cccs2)[C@@H]2CS(=O)(=O)C[C@@H]21,-8,1.68
CC(C)(C)[C@]1(C)NC(=O)N(CCOCC2CC2)C1=O,-9,0.95
Cc1nnc(-c2ccc3ccn(CC(=O)Nc4cccnc4)c3c2)o1,9,-1.08
C=CCNC(=O)CN(C[C@H](C)O)C1CCCCC1,2,-0.22
COc1cccc(C2C(c3ccccc3)CCN2C(=O)CCC(=O)O)c1 (stereo unspecified),-8,1.45
O=C(Nc1ccncc1)c1nnn(-c2ccccc2)n1,-11,2.03
CC(C)C(=O)N1CCCC(C(=O)N2CCC3C(CCCN3Cc3ccccc3)C2)C1 (stereo unspecified),-1,0.27
CCNC(=O)c1ccc(OC2CCN(C3CCCC3)CC2)c(OC)c1,-19,1.88
Cc1ccc(C)c(-c2cc(C(=O)N(CCC(=O)N3CCCCC3)CC(C)C)no2)c1,-3,0.25

SMILES,% Inhibition [%],Z score
CCOC(=O)N1CCC(NC(=O)c2cc(C(=O)Nc3ccc(OCC)cc3)ccc2CO)CC1,-6,0.85
C[C@H](Nc1cccc(S(=O)(=O)N2CCCC2)c1)C(=O)Nc1ccc(N2CCCCC2)cc1,-6,0.57
CC(O)CC1CCCN1C(=O)Nc1cccc2cccnc12 (stereo unspecified),-16,2.04
C=CCOC[C@@H](O)CN(Cc1c(-c2ccccc2)noc1N1CCc2ccccc2C1)CC(C)C,-8,1.06
CC(C)c1cc(CNS(=O)(=O)c2cc(F)c(F)c(F)c2)on1,-3,0.39
CC(C)[C@H](NC(c1ccccc1)(c1ccccc1)c1ccccc1)C(=O)n1ccnc1,0,-0.05
CCC(NCC(C)(O)c1cnn(C)c1)c1ccccc1F (stereo unspecified),5,-0.67
CCCc1nc2cc(CCC(=O)Nc3ccc(Cl)cc3C)ccc2[nH]1,-2,0.28
Cc1nn(-c2ccc(N3CCCC3)nn2)c(C)c1CCC(=O)NCc1ccco1,-17,3.32
Cc1cc(=O)c(C(=O)N2[C@H](C)CC[C@H](C(=O)OC(C)(C)C)[C@@H]2C)c[nH]1,-13,1.36
Cc1ccc(-c2nc(CNC(=O)[C@H]3CCCO3)[nH]c2-c2ccccn2)cc1,-3,0.68
CCCCCOCC(=O)Nc1nc(C2CC2)c[nH]1,-18,3.49
O=c1ccc(C2CC2)nn1CC1CCN(C2CCCCC2O)CC1 (stereo unspecified),-7,1.09
CC(C)(C)c1nc(CS(=O)(=O)c2ccc(F)cc2F)no1,-18,3.22
Cc1cnn(CC2CCCN2C(C)C(=O)Nc2ncccn2)c1 (stereo unspecified),-5,0.65
CC1CCN(c2ccc(NS(=O)(=O)c3cccs3)cc2C(=O)O)CC1,-6,0.57
C[C@@H](Cc1cc(C(=O)N2CCC(O)(c3cccc(C(F)(F)F)c3)CC2)on1)c1ccccc1,-9,1.45
O=C(NCc1cccnc1N1CCOCC1)c1ccc(Cl)s1,-10,1.71
COc1cc(NC(=O)C[C@H]2CCCO2)ccc1Br,12,-0.98
CCn1nc(C)nc1-c1ccc(-c2ccn[nH]2)cc1,1,-0.26
Cc1ccc(-c2noc([C@@H]3Cc4[nH]cnc4CN3Cc3ccc(N(C)C)cc3)n2)cc1,1,-0.16
COc1cc(OC)c(N(C)C(=O)[C@H]2CCCN(c3ncnc4c3nc3n4CCCCC3)C2)cc1Cl,0,-0.02
CC[C@H](C)N(Cc1c(C(C)C)nn(-c2ccccc2)c1N(C)C)C(=O)c1ccccc1F,13,-1.6
C[C@@H](CCN)c1cccc(C(F)(F)F)c1,-12,1.22
CCc1nccn1CCc1nc(C2CC2)nn1-c1cccc2cccnc12,2,-0.34
Cc1ncsc1CCCNCC[C@@H](C)CCCC(C)(C)O,0,-0.07
